Source: PMC6919601, “Identification of Plasmodium dipeptidyl aminopeptidase allosteric inhibitors by high throughput screening” (PLoS ONE, 2019)
The campaign covered roughly 110,000 compounds. About 230 (0.21%) showed an effect of 50% or more. The list shows a part of the results.

Target: DPAP1 (Plasmodium falciparum, UniProt Q8IIJ9)
Experiment: primary screen, percent inhibition; read by cleavage of a fluorogenic dipeptide substrate; higher = more effect of the substance
Design: species or system P. falciparum D10 trophozoite lysates; single well
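Note: 30 min substrate incubation versus DMSO and 10 µM JCP410 controls.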

Chain of DPAP1 (Q8IIJ9 whole entry, looked up): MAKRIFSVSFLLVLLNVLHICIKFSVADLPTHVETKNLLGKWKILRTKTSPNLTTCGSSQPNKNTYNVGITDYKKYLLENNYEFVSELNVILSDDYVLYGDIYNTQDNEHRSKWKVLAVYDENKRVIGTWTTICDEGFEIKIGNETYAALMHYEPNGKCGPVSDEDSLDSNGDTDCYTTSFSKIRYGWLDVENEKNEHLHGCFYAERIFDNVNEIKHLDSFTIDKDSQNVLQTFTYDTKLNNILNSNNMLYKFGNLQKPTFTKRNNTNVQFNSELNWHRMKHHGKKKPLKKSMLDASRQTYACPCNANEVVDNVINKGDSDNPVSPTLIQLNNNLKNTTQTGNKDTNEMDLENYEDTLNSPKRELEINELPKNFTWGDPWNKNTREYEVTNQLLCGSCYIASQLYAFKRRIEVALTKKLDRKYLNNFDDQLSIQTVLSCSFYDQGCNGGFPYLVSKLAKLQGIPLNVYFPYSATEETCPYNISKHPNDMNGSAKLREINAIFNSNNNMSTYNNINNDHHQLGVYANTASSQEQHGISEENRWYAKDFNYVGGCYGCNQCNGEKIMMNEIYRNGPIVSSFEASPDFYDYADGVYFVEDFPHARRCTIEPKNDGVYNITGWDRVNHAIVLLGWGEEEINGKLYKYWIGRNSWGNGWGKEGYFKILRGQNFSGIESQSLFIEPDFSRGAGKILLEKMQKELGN

Structure (SMILES) | % Inhibition @ 10 uM [%]
Cc1ccc(C(=O)Nc2nc(-c3nnn(-c4ccc(F)cc4F)c3C)ns2)cc1C | -2.85
COC(=O)c1scc(C)c1NC(=O)C(C)Sc1nc(C)cc(C)c1C#N (stereo not drawn) | 3.72
CCCC(=O)NC(C)c1ccc(Br)cc1 (stereo not drawn) | 1.88
Cc1ccccc1Cc1c(C)nc2nc(SCC(=O)NCc3ccccc3)nn2c1C | -2.9
CCOCCCNC(=O)CSCc1nc(-c2ccccc2C)oc1C | 2.37
O=C(CN1CCCN(Cc2ccc(F)cc2Cl)C1=O)NC1CCCC1 | 0.718
COc1ccc(-c2c(C)nn3c(C)cc(C)nc23)cc1 | -7.54
CC(=O)Nc1cccc(NC(=O)c2cc([N+](=O)[O-])ccc2Cl)c1 | -0.192
Cc1nc2c3ccccc3n3c(CCCC(=O)NC4CCN(Cc5ccccc5)CC4)nnc3n2n1 | 2.04
Cc1ccc(Nc2nc(Cl)nc(Nc3ccc(C)cc3)n2)cc1 | 4.98
CCCCn1c(NCc2cccs2)nc2ccccc21 | 3.93
Cc1nc2c(c(C)nn2-c2ccccc2)c(C)c1CCC(=O)NCCCOC(C)C | -2.45
O=C(Nc1cccc(Oc2ccccc2)c1)C1CCN(S(=O)(=O)c2cccs2)CC1 | 1.28
CCC(C)NC(=O)c1ccc(CSCc2ccc(Cl)cc2)o1 (stereo not drawn) | -1.34
Cc1cccc(N2CCN(C(=O)c3ccc4c(c3)OCO4)CC2)c1C | 1.4
O=C(/C=C/c1ccccc1)Nc1nc[nH]n1 | -1.25
COc1cc(C2N(c3ccccn3)C(=O)C3CCCN32)cc(OC)c1OC (stereo not drawn) | -2.29
COc1ccccc1C(=O)Nc1ccc2oc(-c3cccc(F)c3)nc2c1 | -2.03
CC1CCN(S(=O)(=O)c2ccc(NS(=O)(=O)c3cc(Cl)ccc3Cl)cc2)CC1 | 2.79
CCN(CC)C(=O)C1CCCN(Cc2ccoc2)C1 (stereo not drawn) | 0.708
CC1NC2(CCCCC2)CC(C)(C)c2ccc([N+](=O)[O-])cc21 (stereo not drawn) | -0.274
COCc1cc(C)nc2sc3c(c12)NC(c1ccccc1)NC3=O (stereo not drawn) | -0.703
CCCCCn1c(C)nc2cc(C)c(C)cc21 | -4.71
CCCCN(C)Cc1ccc(C(=O)OC)cc1 | -3.15
Cc1ccc(C)c(NC(=O)CN(c2ccccc2C)S(C)(=O)=O)c1 | -2.44
Cc1nc2c3ccccc3n3c(CCCC(=O)NCCc4c[nH]c5ccccc45)nnc3n2n1 | 5.09

Structure (SMILES) | % Inhibition @ 10 uM [%]
COc1ccc(CN2CCN(c3ccccc3Cl)CC2)cc1O | -7.33
Cc1ccc(NC(=O)COc2cccc(C3C4=C(CCCC4=O)OC4=C3C(=O)CCC4)c2)cc1Cl | 1.17
O=C1c2ccc(Br)cc2C(=O)N1CNc1ccc(Cl)cc1 | -3.78
COCCNC(=O)Cn1nnc2sc3c(c2c1=O)CCC(C)C3 (stereo not drawn) | -2.71
Cc1onc(-c2c(Cl)cccc2Cl)c1C(=O)Nc1ccc2c(c1)NC(=O)CS2 | -18.8
Cc1ccccc1CSc1nc(=O)c2c(n1C)NC(=O)CC2c1ccc(OC(C)C)cc1 (stereo not drawn) | -4.94
Cc1cccc(OCCSc2nc3ccccc3n2CCO)c1 | 0.214
COc1ccc(CCNc2nc3c(c(=O)n(C)c(=O)n3C)n2C)cc1OC | 3.35
O=C1N/C(=C/c2ccc(O)c(Cl)c2)C(=O)N1c1cccc(Cl)c1 | -0.333
CNc1ccc([N+](=O)[O-])c2cccnc12 | -1.64
Cc1ccc(Cc2cncc(O)c2)cc1 | 2.94
Cc1ccc(Cl)cc1N(CC(=O)Nc1ccc(F)cc1)S(C)(=O)=O | -4.65
Cc1ccsc1CN1CCCCC1CO (stereo not drawn) | 1.83
N#C/C(=C\c1cccs1)c1nc2ccccc2[nH]1 | -0.142
CC(C)/N=C(\N)CCn1cnc2c1c(=O)n(C)c(=O)n2C | 4.84
O[C@H]1CC[C@H](NC2CCN(Cc3ccccc3)CC2)CC1 | -1.81
COc1ccc(CNCCc2c[nH]c3ccccc23)c(OC)c1C | -1.6
O=C(CN1CCOCC1)N1N=C(c2ccc(Cl)cc2)CC1c1ccco1 (stereo not drawn) | -4.51
COc1ccc(C(=O)CC(=O)c2ccc(OC)c(OC)c2)c(O)c1 | 4.74
OCCN1CCN(C2CCSC2)CC1 (stereo not drawn) | -3.6
CCCCN(C)CCNC(=O)CSCc1ccc(C)cc1 | -2.99
N#Cc1sc2nc(-c3cccnc3)ccc2c1N | -0.261
COc1ccc(CCN2C(=N)SC3CS(=O)(=O)CC32)cc1 (stereo not drawn) | -4.75
COc1ccc(C2C3=C(O)CC(C)(C)CC3=Nc3ncnn32)cc1Br (stereo not drawn) | 1.73
COc1ccccc1-c1c(C)nn2c(NCCc3ccc(C)cc3)cc(C)nc12 | -3.93
COc1ccc(C2C(C#N)=C(N)N(c3ccccc3Cl)C3=C2C(=O)CCC3)cc1O (stereo not drawn) | -4.76

Structure (SMILES) | % Inhibition @ 10 uM [%]
Cc1ccccc1OCCCn1c(CCCO)nc2ccccc21 | 1.62
Cc1sc2ncn(CC(=O)N3CCOCC3)c(=O)c2c1S(=O)(=O)N1CC(C)CC(C)C1 (stereo not drawn) | 1.5
CC1CCCC(NS(=O)(=O)c2ccc(CCN3C(=O)c4cccnc4C3=O)cc2)C1C (stereo not drawn) | -8.4
CP(=O)(O)c1nccn1-c1ccc(Cl)nn1 | 7.56
COc1ccc(NC(=O)c2ccc(Cl)c(Cl)c2)cc1 | 3.04
COc1cccc(C2NC(=O)NC(C)=C2C(=O)c2ccccc2)c1 (stereo not drawn) | -2.15
CC(C)N(Cc1nc(-c2ccccc2)no1)C(=O)C(C)(C)C | -5.91
CN1C(=O)c2ccc(C(=O)NCc3cccnc3)cc2C1=O | 0.161
CCOC(=O)c1cc(-c2ccc(C)cc2)n(CCC(=O)Nc2cccc(C)n2)c1C | 0.0579
CN(CC(O)c1ccccc1)CC1CC2C=CC1C2 (stereo not drawn) | -1.75
Cc1cc(OCCCc2c(C)n[nH]c2C)ccc1Cl | -2.18
Cc1cc(=O)n2nc(N3CCCC(C(=O)NCCC4=CCCCC4)C3)sc2n1 (stereo not drawn) | 4.55
Cc1cc(C)c2c(n1)sc1c3c(c(O)nc12)C(c1cccnc1)C(C#N)=C(N)O3 (stereo not drawn) | 4.28
CC(CCc1ccccc1)NC(=O)Nc1cccs1 (stereo not drawn) | -5.15
CN(CC(=O)NC1CCCc2ccccc21)S(=O)(=O)c1cccc2nsnc12 (stereo not drawn) | 2
Cc1nc(S)c(C#N)c(-c2cccs2)c1C(=O)Nc1ccccc1 | 36.8
Fc1ccccc1N1CC(c2ccccc2)C(c2cccs2)=N1 (stereo not drawn) | -3.8
CCOC(=O)N1CCC(NC2CCCCCCC2)CC1 | -2.95
O=C(c1ccc(CS(=O)(=O)c2ccc(Br)cc2)o1)N1CCN(C2CCCCC2)CC1 | 2.35
CC(=O)N1CC[C@@]2(O)CCCC[C@@H]2[C@H]1c1cc([N+](=O)[O-])ccc1O | -1.07
CC(=O)N1CCC(N2CCN(c3cccc(Cl)c3)CC2)CC1 | -3.5
Cn1c(SCc2ccon2)nc2ccccc2c1=O | 0.231
CCOC(=O)c1c(C)oc2c1c(CN1CCN(CC)CC1)c(O)c1ccccc12 | 0.343
CCOC(=O)c1c(C)n(C)c2ccc(O)c(CN(CC)CC)c12 | -4.58
O=C(O)C1CC=CCC1C(=O)Nc1ccc(N2CCN(c3cccc(Cl)c3)CC2)cc1 (stereo not drawn) | -0.95
N#CC1=C(N)Oc2c(c(O)nc3nc(Nc4ccccc4)sc23)C1c1ccc(Cl)cc1 (stereo not drawn) | -1.6

Structure (SMILES) | % Inhibition @ 10 uM [%]
CC(=O)Nc1sc2c(c1C(=O)O)CCCC2 | -2.18
Cc1n[nH]c(C)c1CCCCCCOc1ccc(Br)cc1 | 1.35
CCO/C=N/C1=C(C#N)C(c2ccc(Cl)cc2)C2=C(CC(C)(C)CC2=O)O1 (stereo not drawn) | -0.25
COc1cccc(-c2cc(C(F)(F)F)nc(-n3cc(C)c(=O)[nH]c3=O)n2)c1 | -7.15
COc1ccc(NC(=O)COc2ccccc2OC)cc1 | 2.27
CC1CCN(C(=O)c2cc(-c3ccc4c(c3)OCO4)on2)CC1 | -0.591
Cc1ccccc1OCC(=O)Nc1cc(N)cc(Oc2ccccc2)c1 | 3.17
COc1ccccc1OCC(=O)N1CCN(c2ccccc2OC)CC1 | -3.04
N#CCNC(=O)C(CCS(=O)(=O)c1ccccc1)CCS(=O)(=O)c1ccccc1 | -3.49
CC(C)Sc1nc2ccc(N3C(=O)C4CCCCC4C3=O)cc2s1 (stereo not drawn) | -4.8
Cc1sc(NC(=O)c2ccnn2C)c(C(N)=O)c1-c1ccc(Cl)cc1Cl | -0.318
COc1cccc(CNc2nc3ccc(Cl)cc3n3cnnc23)c1 | -2.25
O=C(O)C1C2C=CC(C2)C1C(=O)NCCCN1CCOCC1 (stereo not drawn) | -12.6
Clc1ccc(-c2noc(CSc3nc4ccccc4[nH]3)n2)cc1 | 2.31
CC1=CC(=C(C#N)C#N)C=C(C)N1CCO | 0.587
CCOc1ccccc1C1C(C#N)=C(N)Oc2[nH]nc(-c3ccc4c(c3)OCO4)c21 (stereo not drawn) | -8.15
COc1ccccc1CCNCc1c(C(=O)O)n(Cc2ccc(C)cc2)c2cc(C)ccc12 | 2.6
O=C(NCC(=O)N1CCCCC1)c1ccccc1 | -1.98
CCSc1nc(-c2ccccc2)cc(-c2ccccc2OC)c1C#N | -3.77
CCOc1ccc(C(=O)C2=C(O)C(=O)N(c3nccs3)C2c2cccc(Oc3ccccc3)c2)cc1 (stereo not drawn) | -1.25
Cc1cc(C)c2nc3s/c(=C\c4ccc(F)cc4)c(=O)n3c2c1 | 2.92
CC(=O)Nc1ccccc1SCC(=O)Nc1cc(C)c(C)cc1Br | 1.17
COc1ccc(C(=O)Nc2ccccc2C(=O)NCCCCO)cc1 | 1.59
O=C(O)CCc1ccc(-c2cccs2)n1NC(=O)c1ccccc1Br | 4.74
